Experimental data as given in publication PMC12136788.
The list shows a part of the results.

B1: chr6:56640275:56640385:-|CDS|ENSG00000151914|unk|total|mutant (ssRNA)
RNA: GGGAGUUCUACAGUCCGACGAUCGACUUCCCGCCUGACUCCAUCUGUCACUCCAGCUUAUACACCUGGUUUCCCAUCAGGAUCCGUUCCAAAUUUCAGUUCAGGAGCCGAGCCAAAUUCAUUGCAAACUUUGAAGUUGAUGCACAACAGAGGAUUGAGCAUCA
B2: chr19:1925360:1925461:+|3pUTR|ENSG00000227500|msi1|FALSE|unique (ssRNA)
RNA: GGGAGUUCUACAGUCCGACGAUCUCUCGAACUCCUGACCUCAAGUGAUCCACCCGCCUUGGCCUCCCAAAGUGCUGGGAUAAUAGGUGUCAGCCACCGCGCCCAGCCUGGAGUGGCCUUUUAUGAGAGGGGACCCGUCAAAUCCAACAGAGGAUUGAGCAUCA
B3: chr3:52707940:52708050:+|3pUTR|ENSG00000114902|msi1_unk|total|mutant (ssRNA)
RNA: GGGAGUUCUACAGUCCGACGAUCUUCCGUUCUCUUUAUACUUCAUUUCCCGCCCAGUUGGGUUUUGAUUUAUAUAAGCCGUUCCGACCUUCUCUUCAUAAUCUUGCUCUGAGAUGGGGAACAGAACACACAAGUAUGAAGUUUCAACAGAGGAUUGAGCAUCA
B4: chr19:46720021:46720126:-|3pUTR|ENSG00000090372|unk|FALSE|unique (ssRNA)
RNA: GGGAGUUCUACAGUCCGACGAUCGCCGCUCCUGGUAUCAGAGCUGCUUUCCAGAGGGCAGCACAGCCAGGGCCGGGUGUCUUUAGGGAUCAGUUUUUCCAAGACUCCAGAAGGUGCCAGGUUCUCCCCUUGAGCUCCUGCUCCCAACAGAGGAUUGAGCAUCA
B5: chr19:45844017:45844118:-|CDS|ENSG00000125755|msi1|FALSE|unique (ssRNA)
RNA: GGGAGUUCUACAGUCCGACGAUCGCCCGCCAGAGACCCAUGUUCAUGUCUGAGGUGAUCCAGGCCUAUGAAACUCUGCAUGGUAGGUCAUUGUCCUCCCCCCUCCCCCUGCCUUCUCUUCACUGGCCAGUCUGCUCUUUCUUUCAACAGAGGAUUGAGCAUCA
B6: chr12:42105817:42106069:-|CDS|ENSG00000151233|control|control|control (ssRNA)
RNA: GGGAGUUCUACAGUCCGACGAUCAUUGCUGCAAUGGCACCAGAACAUGAGGAACCUCGAAUAGGAUGGUAUAAUCGCUUUGCUAGGCAUCCAUAUUAUGGAAAAACUGGAGUAAACUCUGGAGUUAUGUUGAUGAACAUGACUCAACAGAGGAUUGAGCAUCA
B7: chr2:96373863:96373964:+|3pUTR|ENSG00000121152|unk|FALSE|unique (ssRNA)
RNA: GGGAGUUCUACAGUCCGACGAUCUAGAACUGGCAAAAUAUUUGAGUGUCCACUAGAUGAGUAUCAGACCUAGUCCUUACCCUUAGGGGGAUGCAGUCCUGGUUGUUAUCCAGGAUACACACCUGUCAGUAUAAGGCAGAAGAUCAACAGAGGAUUGAGCAUCA
B8: chr7:127580627:127582013:-|three_prime_utr|ENSG00000179562|control|control|control (ssRNA)
RNA: GGGAGUUCUACAGUCCGACGAUCAGGAGUCUUCAAUGUGGGAAGGGAUUUUCUGCCAAAUGCCAUUAAUGCUGCUUUAUCCUUAGGCCCUAGAGAUACUGAAAGUCCUGGGGCAGUAUCUUCUGAUGGUGUGCAUGUGAGGAGCAACAGAGGAUUGAGCAUCA
B9: chr12:111683145:111683307:-|CDS|ENSG00000089234|control|control|control (ssRNA)
RNA: GGGAGUUCUACAGUCCGACGAUCAAAGACGACACUAGCCUCAGCUGUAGCCUGUUUAGAAGGCAAGUCACCAGGAGAGAAAGUAGCGAUUAUCCAUCAGCAUCUCGGCCGUCGAGAAAUGACAGAUGUGAUCAUUGAGACCAUCAACAGAGGAUUGAGCAUCA
B10: chr8:7990417:7990620:-|CDS|ENSG00000205989|control|control|control (ssRNA)
RNA: GGGAGUUCUACAGUCCGACGAUCGAUGUCUGCAACAUAGUAGAAGAUCAAAUUGGUGCCUGCCGAAGAAGGAUGAAGUGCUGUAGAGCAUGGUGGAUUUUAAUGCCAAUUCCAACACCACUUAUCAUGUCAGAUUAUCAAGAACAACAGAGGAUUGAGCAUCA
B11: chr4:140153917:140154018:-|5pUTR|ENSG00000196782|msi1|total|mutant (ssRNA)
RNA: GGGAGUUCUACAGUCCGACGAUCUUUGCAGUCGCCUCGGACUGUCCAUGUGUUUACUUCCCCCAGCCCGAGGAUUCGAUAUCCCGGUUCCUGUGAAAUGCAACUGAGCAGCCAAAGUACUUUGAGAACACGGGGCGGCAUAAACAACAGAGGAUUGAGCAUCA
B12: chr14:102225094:102226328:-|three_prime_utr|ENSG00000080823|control|control|control (ssRNA)
RNA: GGGAGUUCUACAGUCCGACGAUCCCUCCCAUCUGCUCUGCUGUCCCCACACCUGCGGUGCAGCCAGCCUGCCACAAGGCAGCUAGAGUCCAGCUAGACCCACCCCUGGCACGGCCGACCUCUUCCUGGCUUCUUCUGGGCCUACAACAGAGGAUUGAGCAUCA
B13: chr2:218454035:218454136:-|3pUTR|ENSG00000135913|msi1|total|mutant (ssRNA)
RNA: GGGAGUUCUACAGUCCGACGAUCGAGAUUUCUUCACACAGUAUGUUCAUCAUAUAUCAUCAUCAUUAUUAUGGUGGUAAAGACCGAAUCUUUUUUCUUUUUUGUCAUUCUGCCAUGGAGCAGCAUUACCCUAAUGGAUUGCAACAACAGAGGAUUGAGCAUCA
B14: chr11:69653362:69653473:+|3pUTR|ENSG00000110092|msi1_unk|total|mutant (ssRNA)
RNA: GGGAGUUCUACAGUCCGACGAUCACUGCCAUGUACCCGUUUCCGUUUUCUCUCCGAACAUUGUAUUACAGAUGCCUUUUUUGCCGUUUUUUUUUUUUUUAUGUGAUCAAUUUUGACUUAAUGUGAUUACUGCUCUAUUCCAAACAACAGAGGAUUGAGCAUCA

Target: T1, UNK ZnF1-6 (called full-length) (human, UniProt Q9C0B0 30-357)
T1 sequence: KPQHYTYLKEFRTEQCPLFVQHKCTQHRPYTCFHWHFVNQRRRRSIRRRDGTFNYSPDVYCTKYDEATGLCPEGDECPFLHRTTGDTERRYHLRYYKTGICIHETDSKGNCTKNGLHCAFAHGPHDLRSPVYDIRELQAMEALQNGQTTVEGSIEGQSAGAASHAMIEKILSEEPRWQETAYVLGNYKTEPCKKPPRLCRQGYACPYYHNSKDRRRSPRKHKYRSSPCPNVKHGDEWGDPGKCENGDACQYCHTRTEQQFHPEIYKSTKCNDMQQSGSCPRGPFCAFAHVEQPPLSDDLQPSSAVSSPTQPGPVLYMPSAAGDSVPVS
Test: nsRBNS (natural sequence RNA bind-n-seq); RBNS binding buffer (assumed for nsRBNS): 25 mM Tris pH 7.5, 150 mM KCl, 3 mM MgCl2, 0.01% Triton X-100, 500 ug/ml BSA, 20 U/ml SUPERase-In, 4 C; UNK is unkempt and MSI1 is Musashi-1; names of the RNAs are library labels; protein concentration not given here; high values mean tight binding

| Binder | binding signal [enrichment R] |
| --- | --- |
| B1 | 0.514 |
| B2 | 0.561 |
| B3 | 0.313 |
| B4 | 0.754 |
| B5 | 1.07 |
| B6 | 0.776 |
| B7 | 0.672 |
| B8 | 0.88 |
| B9 | 1.28 |
| B10 | 0.643 |
| B11 | 0.678 |
| B12 | 0.975 |
| B13 | 0.449 |
| B14 | 1.63 |
